This note sets out measurements from the GPR68 mutational scans of Howard et al. (2025).

The labels stand for the following.
B1: GPR68, Q15743 (parent)
chain: MGNITADNSSMSCTIDHTIHQTLAPVVYVTVLVVGFPANCLSLYFGYLQIKARNELGVYLCNLTVADLFYICSLPFWLQYVLQHDNWSHGDLSCQVCGILLYENIYISVGFLCCISVDRYLAVAHPFRFHQFRTLKAAVGVSVVIWAKELLTSIYFLMHEEVIEDENQHRVCFEHYPIQAWQRAINYYRFLVGFLFPICLLLASYQGILRAVRRSHGTQKSRKDQIQRLVLSTVVIFLACFLPYHVLLLVRSVWEASCDFAKGVFNAYHFSLLLTSFNCVADPVLYCFVSETTHRDLARLRGACLAFLTCSRTGRAREAYPLGAPEASGKSGAQGEEPELLTKLHPAFQTPNSPGSGGFPTGRLA

In series [1] the parent is B1. The experiment in a line: cAMP reporter score (Enrich2 score, wild type = 0); higher = more signal; HEK293T, FACS bins.
The variants in series [2] derive from B1. As to the kind of experiment: surface expression score (Enrich2 score, wild type = 0); higher = more signal; HEK293T, FACS bins.

Scores with a large standard error are left out. The source holds two more conditions with little spread; they are left out. Read del as a deletion of the residues named and ins as an insertion between two positions. For some assays here: How much ogerin was present is not stated here.

As to MGNITADNSSMSCTIDHTIHQTLAPVVYVTVLQVGFPANCLSLYFGYLQIKARNELGVYLCNLTVADLFYICSLPFWLQYVLQHDNWSHGDLSCQVCGILLYENIYISVGFLCCISVDRYLAVAHPFRFHQFRTLKAAVGVSVVIWAKELLTSIYFLMHEEVIEDENQHRVCFEHYPIQAWQRAINYYRFLVGFLFPICLLLASYQGILRAVRRSHGTQKSRKDQIQRLVLSTVVIFLACFLPYHVLLLVRSVWEASCDFAKGVFNAYHFSLLLTSFNCVADPVLYCFVSETTHRDLARLRGACLAFLTCSRTGRAREAYPLGAPEASGKSGAQGEEPELLTKLHPAFQTPNSPGSGGFPTGRLA [V33Q], the cAMP reporter score in series [1] (pH 6) is -1.97; in series [1] (pH 6.5, modulator: ogerin), -2.06. The surface expression score in series [2] was -2.26.
Take MGNITADNSSMSCTIDHTIHQTLAPVVYVTVLVVGFNANCLSLYFGYLQIKARNELGVYLCNLTVADLFYICSLPFWLQYVLQHDNWSHGDLSCQVCGILLYENIYISVGFLCCISVDRYLAVAHPFRFHQFRTLKAAVGVSVVIWAKELLTSIYFLMHEEVIEDENQHRVCFEHYPIQAWQRAINYYRFLVGFLFPICLLLASYQGILRAVRRSHGTQKSRKDQIQRLVLSTVVIFLACFLPYHVLLLVRSVWEASCDFAKGVFNAYHFSLLLTSFNCVADPVLYCFVSETTHRDLARLRGACLAFLTCSRTGRAREAYPLGAPEASGKSGAQGEEPELLTKLHPAFQTPNSPGSGGFPTGRLA [P37N]: the cAMP reporter score in series [1] (pH 6) was -1.59; in series [1] (pH 6.5, modulator: ogerin), -0.424.
For the variant V33_V34insGS, the cAMP reporter score in series [1] (pH 6) was -0.637; in series [1] (pH 6, modulator: ogerin) it was -0.964; in series [1] (pH 6.5, modulator: ogerin), -2.06. Also, the surface expression score in series [2] is -2.77.
On the same counts, the results for V29del are -0.127, -0.202, -0.566 and -2.34.
Turning to MGNITADNSSMSCTIDHTIHQTLAPVVYVNVLVVGFPANCLSLYFGYLQIKARNELGVYLCNLTVADLFYICSLPFWLQYVLQHDNWSHGDLSCQVCGILLYENIYISVGFLCCISVDRYLAVAHPFRFHQFRTLKAAVGVSVVIWAKELLTSIYFLMHEEVIEDENQHRVCFEHYPIQAWQRAINYYRFLVGFLFPICLLLASYQGILRAVRRSHGTQKSRKDQIQRLVLSTVVIFLACFLPYHVLLLVRSVWEASCDFAKGVFNAYHFSLLLTSFNCVADPVLYCFVSETTHRDLARLRGACLAFLTCSRTGRAREAYPLGAPEASGKSGAQGEEPELLTKLHPAFQTPNSPGSGGFPTGRLA [T30N], the cAMP reporter score in series [1] (pH 6) is 0.151; in series [1] (pH 6.5, modulator: ogerin) it was -0.902. For the same variant, the surface expression score in series [2] was -1.98.
For MGNITADNSSMSCTIDHTIHQTLAPVVYVSVLVVGFPANCLSLYFGYLQIKARNELGVYLCNLTVADLFYICSLPFWLQYVLQHDNWSHGDLSCQVCGILLYENIYISVGFLCCISVDRYLAVAHPFRFHQFRTLKAAVGVSVVIWAKELLTSIYFLMHEEVIEDENQHRVCFEHYPIQAWQRAINYYRFLVGFLFPICLLLASYQGILRAVRRSHGTQKSRKDQIQRLVLSTVVIFLACFLPYHVLLLVRSVWEASCDFAKGVFNAYHFSLLLTSFNCVADPVLYCFVSETTHRDLARLRGACLAFLTCSRTGRAREAYPLGAPEASGKSGAQGEEPELLTKLHPAFQTPNSPGSGGFPTGRLA [T30S], the cAMP reporter score was 0.591 in series [1] (pH 6); -0.821 in series [1] (pH 6, modulator: ogerin); -0.578 in series [1] (pH 6.5, modulator: ogerin). The surface expression score in series [2] is -0.246.
In the case of V29_T30insGSG, the cAMP reporter score in series [1] (pH 6) is -1.44. The surface expression score in series [2] was -1.76.
MGNITADNSSMSCTIDHTIHQTLAPVVYVTVLVVGFPANCLSLYFGFLQIKARNELGVYLCNLTVADLFYICSLPFWLQYVLQHDNWSHGDLSCQVCGILLYENIYISVGFLCCISVDRYLAVAHPFRFHQFRTLKAAVGVSVVIWAKELLTSIYFLMHEEVIEDENQHRVCFEHYPIQAWQRAINYYRFLVGFLFPICLLLASYQGILRAVRRSHGTQKSRKDQIQRLVLSTVVIFLACFLPYHVLLLVRSVWEASCDFAKGVFNAYHFSLLLTSFNCVADPVLYCFVSETTHRDLARLRGACLAFLTCSRTGRAREAYPLGAPEASGKSGAQGEEPELLTKLHPAFQTPNSPGSGGFPTGRLA [Y47F]: the cAMP reporter score in series [1] (pH 6) is -0.236; in series [1] (pH 6, modulator: ogerin), 0.269; in series [1] (pH 6.5, modulator: ogerin), -0.045. Further, the surface expression score in series [2] is -0.17.
